In all, about 310,000 compounds went through this assay and about 14,000 (4.5%) showed an effect of 50% or more. Effects have a minus sign here. This is one part of the list.
Molecular target: human ether-à-go-go-related gene (hERG) potassium channel (human, UniProt Q12809)
Assay: primary screen, population patch clamp on CHO cells stably expressing hERG
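Note: peak tail current of the secondary pulse compared with the same well before compound.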

human ether-à-go-go-related gene (hERG) potassium channel, sequence (Q12809 whole entry, looked up): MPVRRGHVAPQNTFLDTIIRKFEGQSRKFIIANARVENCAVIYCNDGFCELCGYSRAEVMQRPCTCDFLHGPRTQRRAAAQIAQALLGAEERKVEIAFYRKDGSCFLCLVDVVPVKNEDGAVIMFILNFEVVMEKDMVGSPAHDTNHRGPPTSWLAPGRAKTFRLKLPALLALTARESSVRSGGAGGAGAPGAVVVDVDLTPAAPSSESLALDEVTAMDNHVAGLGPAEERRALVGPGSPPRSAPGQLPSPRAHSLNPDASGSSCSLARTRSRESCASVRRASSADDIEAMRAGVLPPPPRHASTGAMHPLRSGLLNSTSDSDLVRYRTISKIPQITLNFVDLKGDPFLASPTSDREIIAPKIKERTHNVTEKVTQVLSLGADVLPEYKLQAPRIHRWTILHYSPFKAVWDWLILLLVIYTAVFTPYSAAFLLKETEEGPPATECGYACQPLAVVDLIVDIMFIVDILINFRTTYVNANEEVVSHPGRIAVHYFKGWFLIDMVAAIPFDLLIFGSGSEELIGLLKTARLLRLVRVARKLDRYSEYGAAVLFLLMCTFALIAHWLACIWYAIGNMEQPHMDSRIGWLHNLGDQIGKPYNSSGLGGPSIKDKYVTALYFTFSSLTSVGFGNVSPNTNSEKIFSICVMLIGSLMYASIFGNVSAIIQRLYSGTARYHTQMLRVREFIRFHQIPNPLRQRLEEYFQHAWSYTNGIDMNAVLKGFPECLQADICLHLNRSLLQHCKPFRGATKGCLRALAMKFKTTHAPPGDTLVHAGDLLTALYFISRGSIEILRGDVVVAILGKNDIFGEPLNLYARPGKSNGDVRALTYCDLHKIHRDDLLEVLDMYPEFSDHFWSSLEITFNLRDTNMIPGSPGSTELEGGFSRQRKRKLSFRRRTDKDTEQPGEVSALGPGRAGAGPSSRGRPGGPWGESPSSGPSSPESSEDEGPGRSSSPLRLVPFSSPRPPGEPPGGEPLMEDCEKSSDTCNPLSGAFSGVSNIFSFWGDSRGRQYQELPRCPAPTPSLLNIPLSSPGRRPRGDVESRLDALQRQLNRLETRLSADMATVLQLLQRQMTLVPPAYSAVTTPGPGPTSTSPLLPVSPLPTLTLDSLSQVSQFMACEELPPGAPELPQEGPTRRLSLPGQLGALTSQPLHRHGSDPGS

Row | Compound | hERG current change (%, negative = inhibition) at 10uM [%]
1 | CC1(c2cccc([N+](=O)[O-])c2)CC(C)(C)N(C(=O)c2ccccc2)c2ccccc21 (stereo not drawn) | 12.8
2 | CCC(=O)N1CCN(c2nc(-c3ccccc3)c3c(c2C#N)CCCC3)CC1 | -19.8
3 | O=C(Cc1ccccc1)NNC(=O)c1cccs1 | 5.31
4 | Cc1cccc(C(=O)Oc2ccc(/C=N/NC(=O)Cc3ccc([N+](=O)[O-])cc3)cc2)c1 | 21.8
5 | COc1ccc(CCNC(=O)N2c3ccccc3Sc3ccccc32)cc1 | 3.44
6 | COc1ccccc1C(=O)N/C(=C\c1ccc(Br)cc1)C(=O)NCC(=O)O | 1.78
7 | COc1ccc(N2CCN(CC(O)COc3ccccc3[N+](=O)[O-])CC2)cc1.Cl (stereo not drawn) | -44.1
8 | COc1cccc(C(=O)NCCSCc2c(F)cccc2Cl)c1 | -29
9 | Cc1noc(C)c1C(=O)Nc1nc(C23CC4CC(CC(C4)C2)C3)cs1 | 0.55
10 | CC1=NCCN1S(=O)(=O)c1c(C(C)C)cc(C(C)C)cc1C(C)C | -3.48
11 | CN(C)c1ccc(/C=C2/C=C(c3ccc4c(c3)CCCC4)OC2=O)cc1 | 11.1
12 | Cc1ccc(NC(=O)CSc2nnc(Cn3cnc4ccccc43)o2)cc1 | -2.8
13 | CCOc1ccc(CNC(=O)C2CCC(=O)N2C2CCCC2)cc1OC (stereo not drawn) | 2.3
14 | Cc1ccc2c(c1)c1c3n2CCNC3CCC1.Cl (stereo not drawn) | -5.84
15 | COC(=O)C1=C(c2cc3ccccc3s2)C[C@@H]2CC[C@H]1N2C | -16
16 | Cc1ccc(CN2C(=O)CCC2C(=O)NCCc2ccccc2)cc1 (stereo not drawn) | 7.99
17 | CC(Sc1nnc(-c2ccc(Cl)cc2)n1C)C(N)=O (stereo not drawn) | -5.98
18 | N=c1oc2ccccc2cc1C(=O)Nc1ccc(F)cc1 | 16.5
19 | Nc1ccc(Cl)c(S(=O)(=O)Nc2ccc(Cl)cc2)c1 | 17.3
20 | COc1cc(C(=O)N2CCN(C(=O)c3cccc4ccccc34)CC2)cc(OC)c1OC | -5.14
21 | Cn1c(=O)[nH]c(=O)c2c1nc(Br)n2CCCSc1nc2ccccc2o1 | -66.8
22 | CC1=CCC2C(=O)N(c3ccc4ccccc4n3)C(=O)C2C1 (stereo not drawn) | -1.37

Row | Compound | hERG current change (%, negative = inhibition) at 10uM [%]
23 | COc1cc(/C=C/C(=O)O)cc(S(=O)(=O)NC2CCCC2)c1OC | 10.9
24 | Cc1ccccc1-c1noc(-c2ccccc2C(=O)N2CCCC2)n1 | -24.9
25 | Cc1cc(OCC(=O)Nc2sc3c(c2C#N)CC(C)(C)NC3(C)C)c(C(C)C)cc1Cl | 14.3
26 | Cc1nc(-c2cc(-c3nc(-c4cc(C(F)(F)F)cc(C(F)(F)F)c4)no3)no2)cs1 | 2.06
27 | CSCSC1=C(C#N)C(c2ccccc2Cl)C(C(C)=O)=C(C)N1 (stereo not drawn) | -6.02
28 | CC(=O)N(C)/C=C1\Sc2ccccc2C1=O | -1.89
29 | Cc1cc([N+](=O)[O-])nn1Cc1ccc(C(=O)N/N=C/c2ccccc2)cc1 | -10.3
30 | CCN(CC)CCCNc1oc(-c2ccccc2[N+](=O)[O-])nc1C#N | -3.83
31 | CN(C)CCCn1c(=O)n(Cc2ccccc2)c(=O)c2c3c(sc21)CCCCC3 | -58.9
32 | O=C(N/N=C/c1cccc([N+](=O)[O-])c1)c1ccncc1 | 3.11
33 | CCn1c(C)c(CS(=O)(=O)c2ccccc2)[nH]c1=O | 47.2
34 | CC(=O)c1ccccc1Oc1nc(CN2CCOCC2)nc2scc(-c3cccs3)c12 | -15.3
35 | CCN1CCN(c2cc(C)c3cc(NC(=O)CCC(=O)Nc4ccc(OC)cc4OC)ccc3n2)CC1 | 9.81
36 | COc1cccc(C(=O)N2c3ccccc3Sc3ccccc32)c1 | 0.0972
37 | COc1ccc(CNS(=O)(=O)c2cc(-c3cc(C)no3)ccc2OC)cc1OC | 2.57
38 | COCCN(Cc1cc2cc3c(cc2nc1Cl)OCO3)C(=O)Nc1ccccc1OC | 16.3
39 | CCCC(=O)N=C1SC2CS(=O)(=O)CC2N1c1ccc(CC)cc1 (stereo not drawn) | -10.5
40 | O=[N+]([O-])c1cccc(S(=O)(=O)N2CCCC2)c1 | -10.9
41 | CCCOc1ccc(C2C3=C(CCCC3=O)N(CC(=O)O)C3=C2C(=O)CCC3)cc1OCC | 14.8
42 | CCN=c1scc(-c2ccco2)n1/N=C/c1ccc(OC)c(O)c1 | -11.8
43 | O=C(COC(=O)C1(c2ccccc2F)CCCC1)N1CCN(C(=O)c2ccco2)CC1 | -17.9
44 | CCCSc1nc(C)c2cc(C)cc(C)c2n1 | 10.9

Row | Compound | hERG current change (%, negative = inhibition) at 10uM [%]
45 | COc1cc(C2=Nc3c(c(C)nn3-c3ccccc3)P(=O)(N3CCOCC3)O2)cc(OC)c1OC (stereo not drawn) | 4.36
46 | COc1ccc(C(=O)Nc2ccc(NC(=O)c3cccs3)cc2)cc1[N+](=O)[O-] | 5.49
47 | Cn1c(=O)c(C(=O)CN2CCCCCC2)c(N)n(Cc2ccccc2)c1=O | -13.5
48 | CCN(CC)C(=O)CN1C(=O)C2(NC(=O)c3ccccc3N2)c2ccccc21 (stereo not drawn) | 22.3
49 | Cc1ccc(NC(=O)c2ccc(NCCN)c([N+](=O)[O-])c2)cc1 | 0.857
50 | CC(=O)c1cccc(NC(=O)NC(C)C2CCCO2)c1 (stereo not drawn) | 12.7
51 | CC(=O)Nc1cc2c(cc1NC(=O)c1cnccn1)OCCO2 | 26
52 | CC1(C(=O)NCc2cc(F)cc(C(F)(F)F)c2)C=CC2(CCCCC2)N1C(=O)c1ccccc1 (stereo not drawn) | -1.31
53 | CSc1nc(-c2ccc(C)cc2)[nH]c1S(=O)(=O)c1ccccc1 | 1.2
54 | C1CNCCN1.COc1cc(C(O)CO)ccc1O (stereo not drawn) | 3.97
55 | CCOC(=O)C(=N/O)/C(C)=N/NC(C)=O | 20.9
56 | O=S(=O)(Nc1ccccc1)c1cccc2nsnc12 | 16.5
57 | Cc1ccc(S(=O)(=O)NNC2=NCCCCC2)cc1 | 16
58 | CN(C)/C=C/C1=C([N+](=O)[O-])C(c2cccc([N+](=O)[O-])c2)NC(=O)N1 (stereo not drawn) | -0.789
59 | O=C(/C=C/c1ccccc1)NC(=S)Nc1ccc(N2CCOCC2)cc1 | 13.7
60 | Cc1cc(C)nc(N2CCC(C(=O)NCc3ccco3)CC2)n1 | -1.73
61 | CC(=O)c1cccc(NC(=S)NC2CC2)c1 | 6.97
62 | COc1cccc(OCCn2c(C)c(/C=N/n3cnnc3)c3ccccc32)c1 | -7.66
63 | O=C(Nc1ccccc1)c1ccc(NCc2ccco2)c(S(=O)(=O)N2CCOCC2)c1 | -14.1
64 | CCOC(=O)C1=C(C)NC2=C(C(=O)c3ccccc32)C1c1cccc2ccccc12 (stereo not drawn) | 18.1
65 | Cc1oc2c(cc(NS(=O)(=O)c3ccc(C(C)C)cc3)c3ccccc32)c1C(=O)O | 5.76
66 | Cc1ccc(C)c(S(=O)(=O)N2CCCCC2CCNC(=O)C(=O)NCc2ccccn2)c1 (stereo not drawn) | -19.8

Row | Compound | hERG current change (%, negative = inhibition) at 10uM [%]
67 | CSc1ncc(C(=O)Nc2ccc(Cl)cc2)c(C)n1 | 4.13
68 | Cc1ccccc1NC(=O)CN1C(=O)N/C(=C\c2ccccc2OCc2ccc(C(=O)O)cc2)C1=O | 23.2
69 | CCOc1ncccc1C(=O)Nc1nnc(C)s1 | 28.2
70 | CCOC(=O)c1c(-c2ccccc2)csc1NC(=O)c1ccc(S(=O)(=O)N2CCOCC2)cc1 | 9.29
71 | Cc1cc(S(=O)(=O)N2CCCCC2CCNC(=O)C(=O)NC2CC2)ccc1F (stereo not drawn) | -32.6
72 | O=Cc1cc(Br)c(OC(=O)N2CCOCC2)c(Br)c1 | -17.9
73 | COc1cc2c(cc1OC)CN(C(=O)c1oc3ccccc3c1C)CC2 | -20.8
74 | CCOC(=O)N1CCN(C(=O)CSC2=NS(=O)(=O)c3ccccc3N2)CC1 | -8.55
75 | O=C(Cc1cccc(NC(=O)C2CCN(C(=O)C3CC3)CC2)c1)Nc1cccc(C(=O)N2CCCC2)c1 | -1.92
76 | C/C(=N\NC(=O)c1nnn(-c2nonc2N)c1-c1cccs1)c1cccnc1 | 20.1
77 | COc1ccc(NC(=O)Cn2nnc3sc4c(c3c2=O)CC(C)(C)OC4)cc1 | 1.18
78 | COc1ccc(S(=O)(=O)Nc2ccccc2OC)cc1NC(=O)CC1CC2CCC1C2 (stereo not drawn) | -15.4
79 | Cc1cc(C)n2nc(SC(C)C(=O)NCc3ccco3)nc2n1 (stereo not drawn) | 1.81
80 | CCOC(=O)c1nc2c(=O)n(C)c(=O)n(C)c2n(C)c1=O | 15
81 | Cl.N=c1sccn1CC(=O)Nc1ccccc1Sc1ccccc1 | -31.1
82 | COc1ccc(Cl)cc1NC(=S)NN1CCOCC1 | 33.6
83 | CCN(CC)S(=O)(=O)c1ccc(NC(=O)COC(=O)CCc2cc(OC)c(OC)c(OC)c2)cc1 | -0.631
84 | C=CCN1C(=O)/C(=C/c2ccc(O)cc2)S/C1=N/c1nccs1 | -12.6
85 | Brc1ccc(N/N=C(/N=Nc2nn[nH]n2)c2ccccc2)cc1 | 37.8
86 | OCCN=C1CCCc2c1[nH]c1ccc(Cl)cc21 | -18
87 | Cc1ncc(N=Nc2ccccc2)c(-c2ccccc2)n1 | 2.63
